Reference: the supplement of paper PMC11417369
The list shows a part of the results.

What follows are sequences tested on PF3D7_0420300 AP2 domain 1 (GST-tagged) (assay: gcPBM binding intensity (ln(normalized median fluorescence intensity)); higher = stronger DNA binding).
Summary of the method: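 GST-fused DNA-binding domains of P. falciparum, expressed in E. coli, were applied at about 25 μg on average for 1 h to an Agilent 4 × 180k array of primer-extended double-stranded 36-bp intergenic genomic probes and negative controls. Binding intensity is the highest Masliner-normalised natural-log median intensity across replicate spots of either probe orientation, measured with Alexa488 anti-GST antibody and a 488 nm scan.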

Row | Sequence | gcPBM binding intensity (ln)
1 | TTTCTTTTTTTTTTTTTTTCTGGCTTTTTCTCTTTT [TGCATGCA_negctrl_site599] | 9.26
2 | TCTGTAGTTTTTTACAGTACTTTTAGGTAATACATA [XGTACX_site7417] | 9.11
3 | AAAACACCCAAACACACACACACATATATATATATA [CACACA_site9119] | 10.1
4 | TTCTTGTATTTTCATAGTACATATAATGTCGTGTTA [XGTACX_site7714] | 9.42
5 | AGAAAAAAAATATACACACATACGATCATACATATG [CACACA_site2171] | 9.71
6 | ACCTCTTTGAAATATACACACTAAACATATCAACTT [CACACA_site5372] | 9.53
7 | TACATAGAGTTTGTTTGTACTCATATGCGTAAATTC [XGTACX_site4810] | 9.06
8 | CATTATGTCATAAATGCACACATATACATTGTTTTG [CACACA_site8118] | 9.49
9 | AATAAATTATTTATTGCATGTAATATGAATATTTTT [TGCATGCA_site798] | 8.99
10 | ATATATTTTATTCCTATATATATATATATATATATA [GTGCAC_negctrl_site556] | 9.27
11 | TAATGTATGAAATAAACACACAAGTAAGTACATAAA [CACACA_site2451] | 9.62
12 | ATACAACATATATATACACACATATAATAATAATAA [CACACA_site3367] | 9.79
13 | AAACCAATAAAAAACTGTACAAAAATTATATGAGAT [XGTACX_site1269] | 9.65
14 | TAATATAAAGGAAAAGAAAAGAAAAGAATATACAAT [CACACA_negctrl_site1369] | 9.66
15 | GAATAAAAAATATATGTGCACATATAAACTTAAAAT [GTGCAC_site9554] | 9.46
16 | AAATAACACATATATACACACATATAAATATAATAT [CACACA_site2692] | 9.94
17 | AAAAAAAAAAAAAAAATACACACGTGAATGTATTGT [CACACA_site1320] | 9.55
18 | ATAGGACCTATGTGCCCATGGGTACATTAAAAAAAA [CACACA_negctrl_site1465] | 8.86
19 | AAAAAACTTATAATCACACATATGATTAAATATTAA [CACACA_site4956] | 9.22

Row | Sequence | gcPBM binding intensity (ln)
20 | AATTATTTTTTGTATGAACACACAACTTAATTATGA [CACACA_site8774] | 9.36
21 | TTGAATGTAGTTAAATGTACATGTAATATATAAAAA [XGTACX_site1250] | 9.13
22 | TTTGTTTTAAATCGAAGTACACATAATTATATTTTA [XGTACX_site1541] | 9.08
23 | ATTTTTTTTTTTATTTTCTTTGAGATTATCTTAATT [CACACA_negctrl_site1209] | 9.29
24 | TTAATTTGTTCTTACACACACATATATATATATTTA [CACACA_site1185] | 9.89
25 | ATATTTTAAATGTTATGTACACATTTGTTGTTTACA [XGTACX_site7353] | 9.36
26 | AATATTATTATTATTACACACACAATTATATTTACC [CACACA_site8061] | 9.93
27 | TATATATATACATAATGTACATTTTATAAATTTACA [XGTACX_site5283] | 9.07
28 | ACTACCTATATTTAAGCATGCAAAAAATAAAAATAT [TGCATGCA_site238] | 9.23
29 | ATAAATTGTTCTTTTTGTGTAAACAGAATATTAAAA [CACACA_negctrl_site1022] | 8.97
30 | ATATATATAATATAGGTGCACTACTTATTTAAAAAA | 9.09
31 | TAAAAATGTAGACACACACACATATATATATTTAAT [CACACA_site1528] | 9.9
32 | AAATAATTAGCTATTTGTACATATATACATATTTAT [XGTACX_site4652] | 9.36
33 | TTAATAACAAAATAAACACACATATATAAATCCACA [CACACA_site1590] | 9.92
34 | TGTGTTAAATGTAATAGTGAATAAATAATTTTAACA [TGCATGCA_negctrl_site161] | 9.22
35 | AAAATGAATATAATGACGCACACTTAAAATTGTTAA [CACACA_site2509] | 9.29
36 | TTTTTTAGAAAAAGTTGTACTTTTTTTTTTTTTTTT [XGTACX_site535] | 8.72
37 | TTTTTACGTAAACAAAATAATTATATAATATTATTT [CACACA_negctrl_site1769] | 9.05
38 | CGTAAATTTTTTAAAAGTACAAAAAGATACGAGAAA [XGTACX_site8722] | 9.16

Row | Sequence | gcPBM binding intensity (ln)
39 | TAAACAAATAAATAAACACACAATATATGTATATAT [CACACA_site3803] | 9.59
40 | ATATTTATATTTGTATGTACTTAAGTTTGTATGTAT [XGTACX_site3608] | 9.44
41 | ATATATTAGGGCAAATTTTCTGACATTACATCAGTC [CACACA_negctrl_site1166] | 9.11
42 | TATTTTTCTTTTTTCTGTACTCACACAAATAGAAGG [XGTACX_site7329] | 9
43 | AAAATAAAAACAAAATCACACATTCCAGTTTTTTTT [CACACA_site5356] | 9.37
44 | TTTTAAAATATCAACACACTCATTATTTTCTATATT [CACACA_site4740] | 9.3
45 | TATATACATGTGAGAGTGCATATAGACATAAAAAAT | 9.59
46 | TCATTCTATCTGTTCACACATACACAAAAAAAAAAA [CACACA_site5141] | 9.08
47 | AAGGTCATTTTATATTGTACATGAAATTGTTATGTA [XGTACX_site187] | 9.2
48 | TATTACAAATATGGCACACATATATATATATATATT [CACACA_site3268] | 9.23
49 | AATAATGAATACACATGTACAAAAATTTTTCTTACT [XGTACX_site1962] | 9.41
50 | ATATATTTTGTATGTAGTACAATTTTATAATCATAT [XGTACX_site8373] | 9.24
51 | TCAATTTGGAACGGTATGCACTAATTTTATATTTTT | 9.41
52 | ATATACAGATAAATGTGTACTTAAATCTATTATATT [XGTACX_site2632] | 9.27
53 | TTTTTGAAATAATGAAACAGCAAAAAAACAAAAATA [CACACA_negctrl_site221] | 9.39
54 | AAAAAAAACAGACACACACACAAATATATAAAAATA [CACACA_site1172] | 10
55 | AAAATAAGCGTGAAACGTACATATTACATTATTATA [XGTACX_site8914] | 9.31
56 | TATTAAAAGAAAATAACACACACAAAAAAAAAAAAA [CACACA_site8661] | 9.82
57 | ATAATATATATATAGTGTACATTTGAATATATTTGA [XGTACX_site583] | 9.26
